Read counts are not given, so values of variants with three or more changes are uncertain.

From the RNAGym collection of RNA variant scans (doi:10.7554/elife.90254) come the findings set out here.

B1: LINE1-mini (parent)
chain: GGCAGAGCUCAACACAGCGUGGCAAAGUGGCUGUGGCUAGACUGCC

The variants in this data set derive from B1. In words: self-cleavage, relative activity (ratio to wild type); higher = more cleavage; in vitro, sequencing; the parent is a self-cleaving ribozyme.
C10U U34A G44U: the self-cleavage was 0.05.
On to A11C A16G G21U A24C, for which the self-cleavage was 0.01.
As for A11C G33U C46U, the self-cleavage was 0.05.
Take A11C G33U C46A: the self-cleavage was found to be 0.02.
Turning to A11G G17A G36A, the self-cleavage was 0.
Turning to A11U C18A C46A, the self-cleavage is 0.
As to C10U G21U G22A U32A G36U C42G, the self-cleavage came out at 0.01.
A11G G17U A25U U38A: the self-cleavage is 0.01.
Next, A11U A12G C18G C23U: 0.01; A11C A14C A16U: 0.02.
In the case of A11U A26G G35C, the self-cleavage was found to be 0.02.
To A11G A25U G30C belongs 0.01.
For the variant C10U C18U U20G G30A, the self-cleavage amounted to 0.05.
In the case of A11G G19C C46U, the self-cleavage worked out at 0.02.
Next, C10U C37U A39U: 0.04; A11G U43A G44U: 0.02.
As for A11G G29C A39U, the self-cleavage was 0.
C10U G30A C37G C42A: the self-cleavage was 0.02.
On to C10U C23U G33U U38G A39G, for which the self-cleavage came out at 0.03.
On to A11G G27C U43C C46U, for which the self-cleavage was found to be 0.01.
Next, C10U C23G G29C C45G: 0.02.
Consider A11C A16U G33A, for which the self-cleavage was determined as 0.
For C10U C23G A41G, the self-cleavage was 0.02.
Take A11G A16U C31G C46U: the self-cleavage is 0.01.
With C10U U32G A39C, the self-cleavage came out at 0.06.
Turning to A11U C18U G21C, the self-cleavage came to 0.14.
As for C10U U32C G36U, the self-cleavage was determined as 0.03.
For the variant C10U G19A A24G G27C, the self-cleavage stood at 0.2.
As to A11U A26U U32A C42U, the self-cleavage worked out at 0.
With A11G G22A A24U G30C U32A U34C, the self-cleavage is 0.03.
Next, A11C C18G A24U U32A: 0.03; A11C G27A G29U C31A: 0.
Regarding A11G C15A C31G, the self-cleavage is 0.04.
Take A11G G33A U43A: the self-cleavage came out at 0.05.
Next, A11C A16U G29U G40U: 0.04; A11C C13G G19U C31A U34G U43G: 0; C10U G17C C23U U38C: 0.12.
Take A11C C15U C37U: the self-cleavage is 0.03.
In the case of A11G A26C C37U, the self-cleavage came out at 0.02.
Regarding A11C G21C G40C C42A, the self-cleavage is 0.01.
For C10U G17A U32G U34A C42A C45U, the self-cleavage came out at 0.03.
As for C10U G35U C37G, the self-cleavage was determined as 0.06.
As to A11C A39U G40U, the self-cleavage was determined as 0.03.
Regarding A11G U38A G40U, the self-cleavage turned out to be 0.
Next, C10U U34C G35C G40A C42U: 0.01; A11G A12C G17U C18G G40A: 0.01; C10U G27U G29A C37A U38G G44U: 0.02.
In the case of A11G A12C U32G, the self-cleavage is 0.01.
Next, A11C A14U U20C A39G: 0.02; C10U C37G A39G C42U: 0.02.
As to A11G C13U U28A G40U, the self-cleavage turned out to be 0.02.
Take A11U A14G C15A G35C: the self-cleavage came to 0.01.
As for A11G A16C G22U G29U A39G, the self-cleavage amounted to 0.01.
Regarding A11G A12G U32C, the self-cleavage is 0.
To A11G G21U G27U G29U belongs 0; to A11C A16G G29U G30U C46A, 0; to A11C A16G C45A, 0.01.
Next, A11G A24G G27A C45A: 0.03; A11C G29C A39C: 0.02.
Consider A11C G29C A39U, for which the self-cleavage stood at 0.07.
Regarding A11G G33U C42U, the self-cleavage is 0.11.
For the variant A11G C13U U28A U34A, the self-cleavage came to 0.01.
For the variant C10U U28G A39U, the self-cleavage was found to be 0.16.
Regarding A11G G17C A39U, the self-cleavage was 0.02.
To A11G A12U U20C belongs 0.02.
Take A11U A24C G36U: the self-cleavage is 0.01.
With A11U C18U G19U G22U U43C, the self-cleavage stood at 0.
For A11U C13U A24C G30A C46U, the self-cleavage was 0.01.
To C10U G21U U43C belongs 0.02.
Regarding A11C A12G G17U C31A G33U G44A, the self-cleavage is 0.02.
To A11G G22U A24U belongs 0.03; to A11G G19A U28C, 0.02; to A11C C13A U34G C45A, 0.01.
Regarding C10U G17C A25C U38C U43A, the self-cleavage was found to be 0.01.
On to A11G C13A A14C, for which the self-cleavage stood at 0.01.
As for A11G C37A U38A G40U, the self-cleavage was found to be 0.01.
As to C10U G17C A25G, the self-cleavage is 0.29.
Next, A11C G17C C37G: 0; A11G A41G C46A: 0.02.
Next, C10U U28A U38A A41C: 0.02; A11C C13G G27C G36A: 0.01; A11G C23U A24G C42A: 0.01.
As to A11C A14C A16G G17C A41U, the self-cleavage turned out to be 0.01.
In the case of A11U C15U C18G C23A U28A A41G, the self-cleavage amounted to 0.02.
As for A11C C18U C42A C46G, the self-cleavage came out at 0.01.
In the case of A11G C18G U28G G35A C45U, the self-cleavage was determined as 0.02.
Next, A11G G17U A26G G40A: 0.01; C10U G21A A24U A26C U43A G44A: 0.05.
To C10U G17C C18G belongs 0.02.
On to A11C C13U G27C G30A U43C, for which the self-cleavage is 0.01.
Turning to A11G U32C G33U, the self-cleavage worked out at 0.04.
With A11G U43C C45G, the self-cleavage came out at 0.
Next, C10U G21C C23A U28A: 0.33; A11U C15A G35C G40U: 0.02.
Next, C10U C23G A24U G33U U34A G35A: 0.02.
As to A11G C18A G22A G44U, the self-cleavage worked out at 0.01.
Regarding A11U C15A A25G A39C, the self-cleavage turned out to be 0.01.
In the case of C10U C31U U34G, the self-cleavage was determined as 0.05.
On to A11G G33C U43C, for which the self-cleavage was 0.01.
As to C10U U20C G21U A24U A41G, the self-cleavage came out at 0.07.
Regarding A11U A25G G30A C45U, the self-cleavage came to 0.
With A11G C23G A39U, the self-cleavage amounted to 0.04.
In the case of A11G G21A G22A, the self-cleavage worked out at 0.01.
Next, A11C C13U C31U: 0.04; A11G C31A C46U: 0.03; A11U A24U G33C G35U: 0.01.
Turning to A11G G21U G22C G30C U38A A41C, the self-cleavage was 0.
Turning to C10U G17C A25C U28A, the self-cleavage stood at 0.51.
Consider A11U C15A G17U C31G, for which the self-cleavage was determined as 0.03.
Next, A11G A14C A24U G27U G36A: 0.01.
Turning to A11G G29A G30A, the self-cleavage stood at 0.07.
Regarding C10U C31G A39C, the self-cleavage stood at 0.03.
To A11C G22A A25U belongs 0.04; to A11C C15A C18A, 0.01.
Next, A11C A24C G36U G44U: 0.02; A11U A12U A25C C46A: 0.05; C10U G44U C45A: 0.01.
A11U C15U A26C G40U: the self-cleavage amounted to 0.04.
For the variant A11U A14C C18U U28G G29C G35C U43G, the self-cleavage is 0.
For C10U G17U A24C, the self-cleavage came out at 0.2.
Next, A11U A26C G29U: 0.09; C10U G40A A41G: 0.02.
Take A11G U20A G33A: the self-cleavage was determined as 0.03.
In the case of A11C U38G A41C, the self-cleavage turned out to be 0.
Take A11C A14U C15G G36A: the self-cleavage worked out at 0.
For A11C A24U G36A C37U, the self-cleavage stood at 0.01.
A11C G17A U28A G33U C46U: the self-cleavage was found to be 0.01.
In the case of A11G G22U U38G A39C, the self-cleavage turned out to be 0.01.
A11U C13A C23U C31G: the self-cleavage stood at 0.01.
As for C10U G17U C23U, the self-cleavage was found to be 0.05.
In the case of A11G G17A C31A, the self-cleavage amounted to 0.01.
To A11U A14G U28G belongs 0; to A11C U20A G21C, 0.01.
Next, A11C G22C A24G: 0.07.
In the case of C10U U20G A39G, the self-cleavage was 0.07.
Consider A11U A14U G35C, for which the self-cleavage stood at 0.02.
To A11C A26G G27A C42A G44U belongs 0.02; to A11G C13U A39G G44C, 0.04; to A11G G17A G19C G22U A26C C31U C46G, 0.01.
To A11C A24U G27U G44A belongs 0; to A11C C13U C15G, 0.01; to A11C C13U A14G G29U, 0.
For A11G A25U G40U U43A C45U, the self-cleavage was found to be 0.02.
As for C10U U32A A39U G44U, the self-cleavage amounted to 0.
Next, A11G C13U C46U: 0.
To A11C G27C U38C belongs 0.01; to A11C C23A G35U, 0.01; to A11C C37G C46A, 0.
Turning to C10U C31G C46A, the self-cleavage was found to be 0.07.
As to C10U G21C G30U, the self-cleavage was determined as 0.18.
For the variant C10U G22U C37U C46A, the self-cleavage is 0.01.
Next, A11G C15G G27C U32C G33U C42A C45U: 0.
As for A11G C31U A41U C42G, the self-cleavage came to 0.01.
As to C10U G17C G40C, the self-cleavage came out at 0.02.
For the variant A11U A14U G17C A26U, the self-cleavage was 0.
A11U C13A A14C C37A G44A C46A: the self-cleavage turned out to be 0.01.
Take A11G U20C G35A A41U C45G: the self-cleavage was found to be 0.
As to A11C C23U U28A U34G G40A, the self-cleavage amounted to 0.02.
Consider A11G U20G A39G, for which the self-cleavage amounted to 0.06.
As for C10U U43G C46U, the self-cleavage is 0.05.
A11G A14U G22A C31G C45A: the self-cleavage worked out at 0.01.
In the case of A11G A12U G21C, the self-cleavage is 0.03.
Consider C10U G17A U38C C42U, for which the self-cleavage is 0.01.
As for A11C A12U G22A C46U, the self-cleavage is 0.01.
Take A11C U34C C37U A41G: the self-cleavage was found to be 0.04.
Next, C10U U20C A25U A39G: 0.05; C10U C23G C45G: 0.08.
